From article PMC7045587 come the findings set out here.

Some values that stand alone complete this part of the results.

The data set is described as follows: Michaelis-Menten kinetics, 60 °C, pH 4. As to conditions: glycan gained, control: wild type.

B1: CTendo45: G63T (protein)
parent chain: MHLSQLALPLLLAAGAHAQGAQGTGRTTRYWDCCKPSCAWPGKSNALQPVQTCNAQDQPLNDGGNTRSGCDSGGSAFMCSNQSPWALNETLSYGWAAVRIAGQSEFNWCCACYELTFTSGPVAGKKMIVQATNTGGDLGSNHFDIAIPGGGVGIFNACTQQYGAPPNGWGERYGGIRSRSECDSFPEALKAGCYWRFDWFLGADNPDVSFKQVACPAAITAKSKCVRQRDVIDQTPTGPEIVPTWTP
In the case of B1, the “enzymatic_activity, kcat_Km” value is, setting by setting: (CMC-Na substrate) “decreases, 35.68 ± 0.97 vs 62.06 ± 1.25”; (β-d-glucan substrate) “no change, 140.39 ± 1.64 vs 138.46 ± 2.07”.
